Measured values published in a collection of fitness landscapes (doi:10.1016/j.celrep.2020.107928).
In all, about 81,000 sequences were measured (“one-hybrid fitness for binding NBS DNA”: median about -0.1, highest 2% from about 0.36 on). The list shows a part of the results.

B1: Caulobacter ParB omega fusion; a variant is named by its letters at X, in order, B8GW30 (parent)
chain: MESVVVGEPGMSEGRRGLGRGLSALLGEVDAAPAQAPGEQLGGSREAPIEILQRNPDQPRRTFREEDLEDLSNSIREKGVLQPILVRPSPDTAGEYQIVAGERAWRAAQRAGLKTVPIMVRELDDLAVLEIGIIENVQRADLNVLEEALSYKVLMEKFERTQENIAQTIGKSXSHVANXMRLLXLPDEVQSYLVSGELTAXHARAIAAAADPVALAKQIIEGGLSVRETEALARKAPNLSAGKSKGGRPPRVKDTDTQALESDLSSVLGLDVSIDHRGSTGTLTITYATLEQLDDLCNRLTRGI

Variants of: B1
Test: one-hybrid fitness for binding NBS DNA (the Noc-binding site; scaled: cognate 1, non-cognate 0); higher = stronger binding
Conditions: with NBS DNA site
In short: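 Selection: bacterial one-hybrid in E. coli USO, HIS3 reporter with the site 19 bp from the promoter, 48 hours at 37°C on M9-minus-histidine plus 0.1 mM IPTG and 5 mM 3-AT. Libraries were Caulobacter ParB with four randomised specificity codons, sequenced on Illumina before and after selection. Fitness is the rescaled log change in variant-to-wild-type read ratio, anchored to the cognate and non-cognate sites.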

Row | Variant | one-hybrid fitness for binding NBS DNA
1 | NMSF | ≤ 0.2
2 | CLQG | ≤ 0.2
3 | VRLT | ≤ 0.2
4 | AQNC | ≤ 0.2
5 | PRWF | ≤ 0.2
6 | RHWV | ≤ 0.2
7 | YPLY | ≤ 0.2
8 | HRRT | 0.311
9 | QVFK | ≤ 0.2
10 | EELW | ≤ 0.2
11 | TVRP | ≤ 0.2
12 | QAYD | ≤ 0.2
13 | QHRA | 0.533
14 | GGWM | ≤ 0.2
15 | KQRV | ≤ 0.2
16 | RPSC | ≤ 0.2
17 | TIDG | ≤ 0.2
18 | MQVR | ≤ 0.2
19 | SHKA | ≤ 0.2
20 | WTPV | ≤ 0.2
21 | LISC | ≤ 0.2
22 | YKGV | ≤ 0.2
23 | PQDS | ≤ 0.2
24 | SYDY | ≤ 0.2

Row | Variant | one-hybrid fitness for binding NBS DNA
25 | FGVA | ≤ 0.2
26 | FNTL | ≤ 0.2
27 | HNRR | ≤ 0.2
28 | THKV | ≤ 0.2
29 | CRLR | ≤ 0.2
30 | QDNV | ≤ 0.2
31 | RLNW | ≤ 0.2
32 | CCGS | ≤ 0.2
33 | PVAR | ≤ 0.2
34 | YWTC | ≤ 0.2
35 | RNTA | ≤ 0.2
36 | TTSI | ≤ 0.2
37 | RNDT | ≤ 0.2
38 | DPHA | ≤ 0.2
39 | QEFS | ≤ 0.2
40 | RTYN | ≤ 0.2
41 | KSGG | ≤ 0.2
42 | MTEI | ≤ 0.2
43 | AYRV | ≤ 0.2
44 | PSKC | ≤ 0.2
45 | QRMK | 0.404
46 | TNVQ | ≤ 0.2
47 | KYYW | ≤ 0.2
48 | LILS | ≤ 0.2

Row | Variant | one-hybrid fitness for binding NBS DNA
49 | CNRC | ≤ 0.2
50 | TNLG | ≤ 0.2
51 | QRGH | 0.616
52 | PRKA | ≤ 0.2
53 | HHPD | ≤ 0.2
54 | QYHD | ≤ 0.2
55 | MKCR | ≤ 0.2
56 | KWGT | ≤ 0.2
57 | NTMC | ≤ 0.2
58 | DTAT | ≤ 0.2
59 | YRME | ≤ 0.2
60 | RFKD | ≤ 0.2
61 | TVHV | ≤ 0.2
62 | RSQT | 0.418
63 | SHVR | ≤ 0.2
64 | KHGT | ≤ 0.2
65 | SQFA | ≤ 0.2
66 | NYGS | ≤ 0.2
67 | YHHR | ≤ 0.2
68 | YMCW | ≤ 0.2
69 | RERN | ≤ 0.2
70 | YTWR | ≤ 0.2
71 | FGRY | ≤ 0.2
72 | QFTY | ≤ 0.2

Row | Variant | one-hybrid fitness for binding NBS DNA
73 | PWNN | ≤ 0.2
74 | QRFA | 0.494
75 | ANYG | ≤ 0.2
76 | DDLL | ≤ 0.2
77 | SLAL | ≤ 0.2
78 | YFQG | ≤ 0.2
79 | VLCS | ≤ 0.2
80 | HSPK | ≤ 0.2
81 | KAFS | ≤ 0.2
82 | TTKG | ≤ 0.2
83 | YVRE | ≤ 0.2
84 | WPVR | ≤ 0.2
85 | QRQN | 0.402
86 | LHFT | ≤ 0.2
87 | DALI | ≤ 0.2
88 | TMKI | ≤ 0.2
89 | YHGG | ≤ 0.2
90 | PQYV | ≤ 0.2
91 | GVSS | ≤ 0.2
92 | RELT | ≤ 0.2
93 | LSWG | ≤ 0.2
94 | NCMR | ≤ 0.2
95 | VDMG | ≤ 0.2
96 | MKNF | ≤ 0.2

Row | Variant | one-hybrid fitness for binding NBS DNA
97 | QGDC | ≤ 0.2
98 | IRTM | ≤ 0.2
99 | DLTM | ≤ 0.2
100 | AKES | ≤ 0.2
101 | NSRM | ≤ 0.2
102 | CDCT | ≤ 0.2
103 | YEET | ≤ 0.2
104 | MNQC | ≤ 0.2
105 | KQGG | ≤ 0.2
106 | NTGI | ≤ 0.2
107 | SGMQ | ≤ 0.2
108 | MTLA | ≤ 0.2
109 | LRCY | ≤ 0.2
110 | QHTV | ≤ 0.2
111 | SHKR | ≤ 0.2
112 | IQRC | ≤ 0.2
113 | QHVG | ≤ 0.2
114 | NKLE | ≤ 0.2
115 | WPLT | ≤ 0.2
116 | SLCR | ≤ 0.2
117 | YIYL | ≤ 0.2
118 | QRER | 0.637
119 | VIYR | ≤ 0.2
120 | DDED | ≤ 0.2

Row | Variant | one-hybrid fitness for binding NBS DNA
121 | VTFW | ≤ 0.2
122 | HSMC | ≤ 0.2
123 | QLAY | ≤ 0.2
124 | QMLV | ≤ 0.2
125 | IWGG | ≤ 0.2
126 | DSFP | ≤ 0.2
127 | WIIG | ≤ 0.2
128 | RNTT | 0.215
129 | DCPT | ≤ 0.2
130 | CNAR | ≤ 0.2
131 | LPCD | ≤ 0.2
132 | HMLR | ≤ 0.2
133 | RLIQ | ≤ 0.2
134 | HVYR | ≤ 0.2
135 | ECCR | ≤ 0.2
136 | RRYK | 0.202
137 | FRCS | ≤ 0.2
138 | MSSL | ≤ 0.2
139 | LSMT | ≤ 0.2
140 | GWHC | ≤ 0.2
141 | NKIM | ≤ 0.2
142 | SLIC | ≤ 0.2
143 | TSEI | ≤ 0.2
144 | TWMT | ≤ 0.2

Row | Variant | one-hybrid fitness for binding NBS DNA
145 | QTVA | 0.317
146 | HYNV | ≤ 0.2
147 | AVGV | ≤ 0.2
148 | DGDC | ≤ 0.2
149 | PSYT | ≤ 0.2
150 | YKIR | ≤ 0.2
151 | VSGG | ≤ 0.2
152 | IQAG | ≤ 0.2
153 | KQTA | ≤ 0.2
154 | HNHC | ≤ 0.2
155 | PLRE | ≤ 0.2
156 | RVMR | 0.32
157 | KRRY | 0.351
158 | RTPR | 0.208
159 | YRRT | 0.296
160 | SVHS | ≤ 0.2
161 | RKKT | 0.691
162 | DGHN | ≤ 0.2
163 | SPWT | ≤ 0.2
164 | PLTD | ≤ 0.2
165 | PSSG | ≤ 0.2
166 | ETGC | ≤ 0.2
167 | CTTN | ≤ 0.2
168 | PSRH | ≤ 0.2

Row | Variant | one-hybrid fitness for binding NBS DNA
169 | HLYY | ≤ 0.2
170 | QLTY | ≤ 0.2
171 | HTWK | ≤ 0.2
172 | KKMR | 0.201
173 | RRYL | ≤ 0.2
174 | NNNS | ≤ 0.2
175 | PRQR | ≤ 0.2
176 | HILL | ≤ 0.2
177 | RQLC | ≤ 0.2
178 | AEQF | ≤ 0.2
179 | AKSC | ≤ 0.2
180 | SRGA | ≤ 0.2
181 | FKER | ≤ 0.2
182 | TMRP | ≤ 0.2
183 | ADWT | ≤ 0.2
184 | ACQS | ≤ 0.2
185 | LRSM | ≤ 0.2
186 | FAAT | ≤ 0.2
187 | WYHT | ≤ 0.2
188 | EPGS | ≤ 0.2
189 | TGVR | ≤ 0.2
190 | NTYS | ≤ 0.2
191 | VLQS | ≤ 0.2
192 | MAML | ≤ 0.2

Row | Variant | one-hybrid fitness for binding NBS DNA
193 | PYSI | ≤ 0.2
194 | NERT | ≤ 0.2
195 | TRFA | ≤ 0.2
196 | YSMY | ≤ 0.2
197 | NITF | ≤ 0.2
198 | RPSV | ≤ 0.2
199 | LWYG | ≤ 0.2
200 | HWWF | ≤ 0.2
201 | CPAN | ≤ 0.2
202 | MIFS | ≤ 0.2
203 | RMTW | ≤ 0.2
204 | FWSG | ≤ 0.2
205 | VKSG | ≤ 0.2
206 | WMSC | ≤ 0.2
207 | VDRW | ≤ 0.2
208 | QRNI | 0.403
209 | TKRC | ≤ 0.2
210 | VICG | ≤ 0.2
211 | RMWE | ≤ 0.2
212 | RKCP | ≤ 0.2
213 | QKHE | ≤ 0.2
214 | ESAC | ≤ 0.2
215 | KVKM | ≤ 0.2
216 | CRFY | ≤ 0.2

Row | Variant | one-hybrid fitness for binding NBS DNA
217 | DPIE | ≤ 0.2
218 | APAY | ≤ 0.2
219 | TEKH | ≤ 0.2
220 | WRAC | ≤ 0.2
221 | RRYH | 0.436
222 | HAAS | ≤ 0.2
223 | ILDE | ≤ 0.2
224 | QRTL | 0.27
225 | KLGC | ≤ 0.2
226 | GERI | ≤ 0.2
227 | QPVP | ≤ 0.2
228 | CISV | ≤ 0.2
229 | AIYP | ≤ 0.2
230 | DPAG | ≤ 0.2
231 | LRPS | ≤ 0.2
232 | DISN | ≤ 0.2
233 | SPTT | ≤ 0.2
234 | VGAG | ≤ 0.2
235 | QVGV | ≤ 0.2
236 | RDQD | ≤ 0.2
237 | ERVW | ≤ 0.2
238 | QDIT | ≤ 0.2
239 | NHRE | ≤ 0.2
240 | QGAE | 0.284

Row | Variant | one-hybrid fitness for binding NBS DNA
241 | NRGG | ≤ 0.2
242 | TMPK | ≤ 0.2
243 | HWFS | ≤ 0.2
244 | RRPS | 0.568
245 | SFAG | ≤ 0.2
246 | RTNI | ≤ 0.2
247 | IILL | ≤ 0.2
248 | DTRY | ≤ 0.2
249 | LFSG | ≤ 0.2
250 | TRNS | 0.237
251 | LCPG | ≤ 0.2
252 | KYVG | ≤ 0.2
253 | GRGK | ≤ 0.2
254 | QRVP | ≤ 0.2
255 | MMTM | ≤ 0.2
256 | TATI | ≤ 0.2
257 | PDAL | ≤ 0.2
258 | QLDQ | ≤ 0.2
259 | RPAI | ≤ 0.2
260 | SYKF | ≤ 0.2
261 | PYTA | ≤ 0.2
262 | SGLT | ≤ 0.2
263 | TPTI | ≤ 0.2
264 | RKDT | 0.498

Row | Variant | one-hybrid fitness for binding NBS DNA
265 | CASR | ≤ 0.2
266 | FGKS | ≤ 0.2
267 | QGPD | ≤ 0.2
268 | MTDG | ≤ 0.2
269 | CQGE | ≤ 0.2
270 | WNST | ≤ 0.2
271 | QWLR | ≤ 0.2
272 | QAAD | ≤ 0.2
273 | HHCS | ≤ 0.2
274 | HVCG | ≤ 0.2
275 | KWAE | ≤ 0.2
276 | YTFW | ≤ 0.2
277 | IQGL | ≤ 0.2
278 | TDKQ | ≤ 0.2
279 | RKGP | ≤ 0.2
280 | PYMT | ≤ 0.2
281 | RNLC | ≤ 0.2
282 | LRYL | ≤ 0.2
283 | AYSC | ≤ 0.2
284 | MMAS | ≤ 0.2
285 | VSRF | ≤ 0.2
286 | MASG | ≤ 0.2
287 | FACC | ≤ 0.2
288 | SMHL | ≤ 0.2

Row | Variant | one-hybrid fitness for binding NBS DNA
289 | PTKS | ≤ 0.2
290 | WFQV | ≤ 0.2
291 | RCWN | ≤ 0.2
292 | VLTI | ≤ 0.2
293 | QVIV | ≤ 0.2
294 | PCSF | ≤ 0.2
295 | QYMN | ≤ 0.2
296 | QMPI | ≤ 0.2
297 | IIGC | ≤ 0.2
298 | KQGR | ≤ 0.2
299 | WELC | ≤ 0.2
300 | FRIW | ≤ 0.2
301 | NRVC | ≤ 0.2
302 | ALAT | ≤ 0.2
303 | QQWY | ≤ 0.2
304 | SWYQ | ≤ 0.2
305 | SVNC | ≤ 0.2
306 | EGSN | ≤ 0.2
